The other results are listed elsewhere or left out. Shown are side measurements of this screen, not its main read-out; they come without a call. Compounds called inactive in the main read-out are mostly missing here.
assay: growth inhibition of WT strain, primary screen, mitochondrial fusion inhibitor project, WT and mutant strains, chemical genetic (AID 1362); conditions: mitochondrial fusion phenotypic screen, at 10 µM; note: tested in S. cerevisiae

| SMILES | inhibition [%] |
| --- | --- |
| CC(C)(C)C(=O)Nc1ccnc(-c2cccnc2)n1 | 34.9 |
| CCCCNC(=S)N/N=C/C1=CCC2CC1C2(C)C (stereo not given) | 54.9 |
| COc1ccccc1/C=C/C=N\N1CCN(Cc2ccccc2Cl)CC1 | 5.72 |
| Cc1cc(C)cc(NC(=S)NC2CC3CCC(C2)N3Cc2ccco2)c1 (stereo not given) | 1.07 |
| NNC(=O)c1ccc2nc(-c3ccc(Br)cc3)cn2c1 | 66.4 |
| CCC(C)(C)NC(=O)CN(C(=O)c1snc(C(N)=O)c1N)c1ccc2c(c1)OCCO2 | 12.2 |
| Fc1ccc(-c2csc(=S)[nH]2)cc1 | 46.2 |
| Nc1ccc(N2CCCCC2)cc1N1CCCCC1 | 38.1 |
| CC(NC(=S)Nc1cccc(C(F)(F)F)c1)C(C)(C)C (stereo not given) | 25.1 |
| CC1CCCN(CC(=O)Nc2ccc(S(=O)(=O)NC3CCCCC3)cc2)C1 (stereo not given) | 96.9 |
| CCc1cccc(C)c1NC(=S)NCCc1c(C)[nH]c2ccc(C)cc12 | -14.1 |
| Cc1cccc(OCCn2c(NC(=O)c3ccco3)nc3ccccc32)c1 | 29.6 |
| S=C(Nc1ccccc1Oc1ccccc1)NC1CCCC1 | 54.8 |
| O=C(Oc1ccc2ccccc2c1Cl)N1CCCCCC1 | 37.4 |
| CC1(C)CC(c2nc(-c3ccc(Cl)cc3)cs2)CCS1 (stereo not given) | 48.4 |
| O=C(N/N=C/c1c[nH]c2ccccc12)C1CC1(c1ccccc1)c1ccccc1 (stereo not given) | 6.75 |
| COc1ccc(CS(=O)(=O)/C(Cl)=C(/Cl)C(=O)Nc2ccc(OC)nc2)cc1 | 21 |
| CCOC(=O)C1CCN(c2nc(-c3ccc(C)cc3)nc3ccccc23)CC1 | 33.9 |
| S=C(NCCCc1ccccc1)Nc1ccc(Cl)cc1 | 49.8 |
| S=C(Nc1ccc(Oc2ccccc2)cc1)NC1CCCCCC1 | 15.7 |
| CC(C)C1Cc2c(sc3[nH]c(=S)n(Cc4ccccc4)c(=O)c23)CO1 (stereo not given) | 29.2 |
| Cc1cccc(NC(=S)NC2CCCC2)n1 | 58 |
| COc1ccc2nc(NC(=O)CN(c3ccc(C)cc3)S(=O)(=O)c3c(C)nn(C)c3C)sc2c1 | 5.15 |
| Cc1cc(N/N=C/c2ccccc2Br)nc2ccccc12 | 63.6 |
| O=C(Nc1nc2ccc(F)cc2s1)c1ccccn1 | 72.6 |
| COc1ccc(-c2nsc3c(N4CCCCC4C)ncnc23)cc1 (stereo not given) | 1.31 |
| Cc1cccc(NC(=S)NC(C)CCc2ccccc2)c1 (stereo not given) | 67.3 |
| COc1cccc(-c2nc(-c3ccccn3)no2)c1 | -13.1 |

| SMILES | inhibition [%] |
| --- | --- |
| Clc1ccc(CSc2nnc(CNc3cccc(Cl)c3)o2)cc1 | 50.4 |
| CCN(CC)S(=O)(=O)c1cccc(C(=O)Nc2sc3c(c2C(N)=O)CCCC3)c1 | 16.4 |
| Cc1ccc(-c2c(C(=O)NCc3ccc(F)cc3)oc(=O)c3ccccc23)cc1 | 18.8 |
| CCc1ccc(NSc2ccccc2[N+](=O)[O-])cc1 | 54.8 |
| COc1cccc(CN(C)c2nc(-c3cccs3)nc3ccccc23)c1 | 36.5 |
| c1ccc(-c2nc(N3CCN(c4ccccc4)CC3)nc(-n3ccnc3)n2)cc1 | 53.3 |
| COC(=O)c1sccc1NC(=S)N1CCN(c2cc(C)ccc2C)CC1 | 69.7 |
| O=c1[nH]cnc2c1c(-c1ccccc1)cn2-c1ccc(Br)cc1 | 67 |
| CC(C)(C)C1CCc2c(sc(NC(=O)c3cccs3)c2C(=O)N2CCCCC2)C1 (stereo not given) | 21.8 |
| CC(=O)c1c(C)[nH]c(C(=O)CSc2nnc(-c3ccc(Cl)cc3)n2CC2CCCO2)c1C (stereo not given) | -3.46 |
| CCCCSc1nnc(-c2ccc(C)cc2)c2ccccc12 | 14 |
| CCOC(=O)c1c(C)[nH]c(C)c1C(=O)COC(=O)/C=C/c1ccc(Cl)cc1 | 35.5 |
| CCNC(=S)N(CCc1c(C)[nH]c2ccc(Cl)cc12)Cc1ccco1 | 38.8 |
| CCCCCC/C(C)=C1/SC(=S)NC1=O | 85.1 |
| COc1ccc(S(=O)(=O)Nc2cc(Sc3ncn[nH]3)c(O)c3ccccc23)cc1 | 87.5 |
| Cc1ccn2c(Nc3ccccc3)c(-c3ccccn3)nc2c1 | 72.3 |
| COc1ccc(NC(=O)CSc2ccc3c(c2)OCCO3)cc1OC | 8.67 |
| O=C(CCc1ccccc1)NC(=S)Nc1ccccc1Br | 28.6 |
| NCCOc1ccc(C23CC4CC(CC(C4)C2)C3)cc1 | 95.6 |
| CCC(=C(c1ccc(OC)cc1)c1ccc(OC)cc1)c1cn(CC(O)CN2CCN(C)CC2)c2ccccc12 (stereo not given) | 76.3 |
| CCNC(=S)N/N=C/c1cccc(OCc2c(F)cccc2Cl)c1 | 35.2 |
| Cc1ccc(NCC(=O)N/N=C/c2cc3ccccc3nc2Cl)cc1 | -9.45 |
| Cc1cccc(C(=O)NC(C(=O)Nc2nc(-c3ccccn3)cs2)C(C)C)c1 (stereo not given) | -9.04 |
| Cc1ccc(CNCC(O)(c2ccccc2)c2ccc(Cl)cc2)cc1 (stereo not given) | 14.7 |
| Cc1ccc(Sc2cnn(-c3ccccc3)c(=O)c2Cl)cc1 | 41.4 |
| O=C(Nc1ccc([N+](=O)[O-])cc1)Nc1ccc(N2CCOCC2)c2nonc12 | 53.1 |
| CC12CCC(C(=O)N(Cc3ccccc3)Cc3ccccc3)(OC1=O)C2(C)C (stereo not given) | 53.5 |

Source: PubChem BioAssay AID1362 (SRMLSC, 2008)
